Laboratory results reported in PMC4336329 (PLoS ONE, 2015).
About 14,000 (4.5%) of roughly 310,000 compounds showed an effect of 50% or more. Effects have a minus sign here. The list shows a part of the results.

The molecules below were run against human ether-à-go-go-related gene (hERG) potassium channel (human, UniProt Q12809) (assay: primary screen, population patch clamp on CHO cells stably expressing hERG).
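Further: peak tail current of the secondary pulse compared with the same well before compound.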

Sequence of human ether-à-go-go-related gene (hERG) potassium channel (Q12809 whole entry, looked up): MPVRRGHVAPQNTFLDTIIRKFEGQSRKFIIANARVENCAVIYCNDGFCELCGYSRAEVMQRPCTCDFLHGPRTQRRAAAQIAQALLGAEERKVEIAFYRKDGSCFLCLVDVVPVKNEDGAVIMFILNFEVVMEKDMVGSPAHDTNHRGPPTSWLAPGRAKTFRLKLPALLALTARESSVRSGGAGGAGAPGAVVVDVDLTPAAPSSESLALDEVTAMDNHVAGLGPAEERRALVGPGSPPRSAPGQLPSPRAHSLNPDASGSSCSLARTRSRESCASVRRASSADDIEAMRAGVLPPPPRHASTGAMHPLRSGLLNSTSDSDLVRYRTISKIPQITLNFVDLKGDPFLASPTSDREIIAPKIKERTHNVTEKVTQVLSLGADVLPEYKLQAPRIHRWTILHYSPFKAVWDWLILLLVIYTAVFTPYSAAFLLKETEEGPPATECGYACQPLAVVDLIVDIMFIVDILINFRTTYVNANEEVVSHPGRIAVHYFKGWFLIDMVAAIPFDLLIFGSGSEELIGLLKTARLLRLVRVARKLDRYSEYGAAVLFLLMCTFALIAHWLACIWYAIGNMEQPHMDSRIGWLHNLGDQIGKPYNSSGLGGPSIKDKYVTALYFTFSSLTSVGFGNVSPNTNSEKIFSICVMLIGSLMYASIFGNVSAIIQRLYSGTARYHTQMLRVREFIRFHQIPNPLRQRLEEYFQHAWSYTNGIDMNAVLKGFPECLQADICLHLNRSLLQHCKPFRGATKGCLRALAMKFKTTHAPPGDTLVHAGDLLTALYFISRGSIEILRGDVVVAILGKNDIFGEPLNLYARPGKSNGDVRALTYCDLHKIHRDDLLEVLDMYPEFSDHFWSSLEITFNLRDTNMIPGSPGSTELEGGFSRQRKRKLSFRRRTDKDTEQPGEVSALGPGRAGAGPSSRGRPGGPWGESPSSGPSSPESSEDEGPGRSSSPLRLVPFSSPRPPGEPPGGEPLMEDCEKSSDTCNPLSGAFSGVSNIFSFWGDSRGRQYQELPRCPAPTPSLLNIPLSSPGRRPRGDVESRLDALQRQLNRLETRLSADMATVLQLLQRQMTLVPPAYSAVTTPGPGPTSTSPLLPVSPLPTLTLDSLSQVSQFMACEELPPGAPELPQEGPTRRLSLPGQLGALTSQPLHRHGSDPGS

Going from `Cc1cc(C)nc(SCc2nc3ncccn3c2Br)n1` to `Cc1cc(C)n2nc(C(=O)OCC(=O)N(C)Cc3ccccc3)nc2n1`, the “hERG current change (%, negative = inhibition) at 10uM” value rises from -2.09% to 0.803%.

Compared with `O=C(NC1CCCC1)C(c1ccco1)N(C(=O)c1ccco1)c1ccccc1` (stereo not shown), `CCN(CC)C(=O)c1ccc(NC(=O)c2cccc(S(=O)(=O)N3CCN(Cc4ccccc4)CC3)c2)cc1` is lower in “hERG current change (%, negative = inhibition) at 10uM” value: -4.89% for the first, -26.2% for the second.

First: Cn1c(SCC(=O)Nc2cc(S(=O)(=O)N3CCOCC3)ccc2N2CCOCC2)nnc1-c1ccncc1
Second: O=C(c1cc([N+](=O)[O-])ccc1N1CCCCC1)N1CCCCC1
The “hERG current change (%, negative = inhibition) at 10uM” value of the first is higher: 11.4% for the first, -17.5% for the second.

First: CCN(CC)c1ccc(/C=N/NC(=O)C(O)c2ccccc2)cc1 (stereo not shown)
Second: Cc1ccc(/C=N/NC(=O)CNC(=O)c2ccc(S(=O)(=O)N(C)C)cc2)cc1
The “hERG current change (%, negative = inhibition) at 10uM” value of the first is lower: 1.71% for the first, 9.13% for the second.

Compared with `COc1ccccc1-n1c(CNC(=O)c2cccs2)n[nH]c1=S`, `COc1ccccc1CNC(=O)c1ccc(-c2ccccc2Cl)o1` is lower in “hERG current change (%, negative = inhibition) at 10uM” value: 23.8% for the first, 4.13% for the second.

Compared with `COc1ccc(S(=O)(=O)NC(C)C(=O)NCc2cccnc2)cc1OC` (stereo not shown), `COc1ccc(C(=O)O)cc1S(=O)(=O)Nc1cccc(C(F)(F)F)c1` is lower in “hERG current change (%, negative = inhibition) at 10uM” value: 14.9% for the first, -7.21% for the second.

Going from `CCn1c(=O)n(CC(=O)NCc2ccccc2OC)c(=O)c2ccccc21` to `C=CCN1CC(c2nc3ccccc3n2Cc2ccccc2)CC1=O` (stereo not shown), the “hERG current change (%, negative = inhibition) at 10uM” value falls from 8.2% to -13.8%.

Going from `COc1ccc(C)cc1S(=O)(=O)N(C)CC(N)=O` to `CCOC(=O)C1C(=O)NC2(C)CC1c1cc(OC)ccc1O2` (stereo not shown), the “hERG current change (%, negative = inhibition) at 10uM” value falls from 22.7% to 6.33%.

Compared with `COC(=O)Nc1nc2ccc(SC(C)C)cc2[nH]1`, `Cc1cc(C)n(CC(=O)N/N=C/c2ccc(C)o2)n1` is lower in “hERG current change (%, negative = inhibition) at 10uM” value: 13.4% for the first, -3.72% for the second.

Compared with `Cc1ccc(-n2nc3c(c2NC(=O)c2c(F)cccc2Cl)CS(=O)(=O)C3)cc1C`, `COc1ccc(NC(=O)c2ccc3ccccc3c2)cc1` is higher in “hERG current change (%, negative = inhibition) at 10uM” value: -31.7% for the first, 11% for the second.

Compared with `CCO[C@H]1c2c(ccc3ccc(=O)oc23)OC(C)(C)[C@@H]1O`, `Cc1ccc(C=Nc2cc([N+](=O)[O-])ccc2C)s1` is lower in “hERG current change (%, negative = inhibition) at 10uM” value: 20.9% for the first, 9.91% for the second.

Going from `CCCc1cc(C(N)=S)ccn1` to `CC(NC(=O)c1ccc(Cl)s1)C1CCCO1` (stereo not shown), the “hERG current change (%, negative = inhibition) at 10uM” value falls from 18.1% to 12.7%.

For `COc1ccc(C2=NN(C(=O)CCC(=O)O)C(c3ccccc3F)C2)cc1` (stereo not shown), the “hERG current change (%, negative = inhibition) at 10uM” value was -1.97%.
